Hit rate of the full screen: of about 360,000 compounds, about 2,600 (0.72%) were called active. The shares of active, inactive and inconclusive entries below differ from those in the screen. Calls follow the shape of the dose curve; as a rule, active = well fitted inhibition curve with a large enough effect; inconclusive = small, poorly fitted or top-dose-only effect; inactive = no such curve, though single readings can be large or run the other way. Where the call is inconclusive, the potency comes from a doubtful curve fit.
Assay: Primary qHTS for Inhibitors of ATXN expression; also: nearly all actives have a fitted effect of over 55% in size
Conditions: HEK-293 ATXN2-luciferase reporter, luminescence, 24 h; series mostly up to 57 µM
Method in brief: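 qHTS (up to 57 uM final) was run with 24 h compound exposure of reporter cells at 37 °C. Each well was multiplexed: SteadyGlo luminescence measured ATXN2-luciferase expression after a fluorogenic Gly-Phe-AFC viability readout (25 uM final).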
In the case of O=C(NCCc1csc(-c2ccc(F)cc2)n1)c1cccc(F)c1, the Potency is reported as active: 28.2 µM. For COc1ccc(/C=N\NC(=O)c2ccccc2Br)cc1COc1ccccc1, the Potency was inconclusive: 31.6 µM [inhibitor, partial curve, poor fit]. In the case of CC(CC(=O)N1CCN(c2ccccc2)CC1)S(=O)(=O)c1ccc2c(c1)NC(=O)CO2 (stereo not drawn), the Potency is reported as inconclusive: 20 µM [inhibitor, partial curve, poor fit]. For O=S(=O)(Nc1ccc(Br)cc1)c1cccc(NC(=S)NCCN2CCOCC2)c1, the Potency was inconclusive: 2.82 µM [inhibitor, partial curve]. With CC1CCCN(CCCNC(=O)c2cc3c(Cl)nc4ccccc4c3s2)C1 (stereo not drawn) the Potency was inconclusive: 28.2 µM [inhibitor, single point]. In the case of CCc1cccc(CC)c1NC(=S)NCCc1c(C)[nH]c2ccc(C)cc12, the Potency is reported as active: 17.8 µM. With Cc1cc(/C=N/n2cnnc2)c(C)n1-c1ccc(OCc2ccccc2F)cc1 the Potency was inconclusive: 25.1 µM [inhibitor, single point]. With Cc1ccc(S(=O)(=O)CCN2CCN(c3ccccc3)CC2)cc1 the Potency was “inactive”. With COC(=O)c1cn(NC(=O)c2cc([N+](=O)[O-])ccc2F)c(=O)c2ccccc12 the Potency was active: 1.06 µM. In the case of COc1ccc(S(=O)(=O)Nc2ccccc2C)cc1, the Potency is reported as inconclusive: 31.6 µM [inhibitor, single point]. With O=S(=O)(NCC1CCCO1)c1ccc(-c2ccc(S(=O)(=O)NCC3CCCO3)cc2)cc1 (stereo not drawn) the Potency was inconclusive: 11.9 µM [inhibitor, partial curve]. With O=C1/C(=C\c2cc(Br)cc(Br)c2O)SC(=S)N1Cc1ccccc1 the Potency was inconclusive: 37.7 µM [inhibitor, single point]. In the case of CC(=O)c1cccc(NC(=O)COC(=O)CCc2ccc(S(=O)(=O)N3CCOCC3)cc2)c1, the Potency is reported as inconclusive: 9.47 µM [inhibitor, partial curve, poor fit]. For CC(C(=O)NCCC1=CCCCC1)c1ccc([N+](=O)[O-])cc1 (stereo not drawn), the Potency was “inactive”. In the case of CCCc1c(C(=O)N/N=C/C(C)=C/c2ccccc2)nnn1-c1nonc1N, the Potency is reported as “inactive”. For Nc1nc(Sc2ccc([N+](=O)[O-])c3nonc23)c2[nH]cnc2n1, the Potency was active: 14.1 µM. For COc1ccc(NS(=O)(=O)c2ccc(C(=O)N3CCN(c4ccc(F)cc4)CC3)cc2)cc1, the Potency was inconclusive: 10 µM [inhibitor, partial curve, poor fit]. With COCc1ccc(O)c2ncccc12 the Potency was inconclusive: 33.6 µM [inhibitor, single point]. In the case of Cn1nnnc1Sc1ncnc2scc(-c3ccc([N+](=O)[O-])cc3)c12, the Potency is reported as active: 7.08 µM. In the case of FC(F)(F)c1cccc(N2CCN(C(=S)NC3CCCCC3)CC2)c1, the Potency is reported as inconclusive: 15.8 µM [inhibitor, partial curve]. For CCCc1cc(=O)n2[nH]cc(-c3ccc(Cl)cc3)c2n1, the Potency was active: 10 µM. In the case of COc1cc(OC)cc(C(=O)Nc2ccc(C(=O)c3ccncc3)cc2)c1, the Potency is reported as inconclusive: 3.98 µM [inhibitor, partial curve, poor fit]. For CC1CCC(n2c(=S)[nH]c3ccccc3c2=O)CC1 (stereo not drawn), the Potency was “inactive”. For O=C(C1=C[C@@H](c2ccc(C(F)(F)F)cc2)C[C@@H](OCc2ccc(CO)cc2)O1)N1CCN(Cc2ccccc2)CC1, the Potency was inconclusive: 35.5 µM [inhibitor, single point]. In the case of C/C(=N\NC(=O)c1c(Br)c(C)nn1C)c1ccc(NC(=O)C(C)Oc2ccc(Cl)cc2C)cc1 (stereo not drawn), the Potency is reported as inconclusive: 28.2 µM [inhibitor, single point]. With O=C1C=CC(=O)N1c1ccc2c(c1)C(NC(=O)C(F)(F)F)c1ccccc1-2 (stereo not drawn) the Potency was inconclusive: 39.8 µM [inhibitor, single point]. With Cc1cccc(Cn2c(COc3ccccc3)nc3ccccc32)c1 the Potency was “inactive”. In the case of N#C/C(=C\C=C\c1ccccc1[N+](=O)[O-])c1nc(-c2ccc3c(c2)OCO3)cs1, the Potency is reported as inconclusive: 35.5 µM [inhibitor, partial curve, poor fit]. For Cc1cc(OCCCN2CCC(C(O)(c3ccccc3)c3ccccc3)CC2)ccc1Br, the Potency was active: 31.6 µM. In the case of COc1ccc(CCNC(=O)c2cc(=O)c3ccc(C)cc3o2)cc1OC, the Potency is reported as “inactive”. For Cc1cccc(NC(=O)c2cc(-c3ccccn3)nc3ccccc23)c1C, the Potency was inconclusive: 33.6 µM [inhibitor, partial curve, poor fit]. For O=C(NCc1cccnc1)c1nc(-c2cccs2)no1, the Potency was inconclusive: 2.38 µM [inhibitor, partial curve, poor fit]. For C/C(N)=C(/C#N)C(=O)CSc1nc2cc(Cl)ccc2c(=O)n1Cc1ccco1, the Potency was inconclusive: 16.8 µM [inhibitor, partial curve, poor fit]. For COc1ccc2c(c1)sc1nc(-c3ccccc3)cn12, the Potency was inconclusive: 2.51 µM [inhibitor, partial curve, poor fit]. In the case of O=C(Nc1ccc([N+](=O)[O-])cc1)C1CC1(c1ccccc1)c1ccccc1 (stereo not drawn), the Potency is reported as “inactive”. In the case of COc1cccc(C2CC(c3c(-c4ccccc4)c4cc(Cl)ccc4[nH]c3=O)=NN2S(C)(=O)=O)c1OC (stereo not drawn), the Potency is reported as inconclusive: 39.8 µM [inhibitor, single point]. With CCCCn1c2c(c(=N)c3c1CCC3)CCC2 the Potency was inconclusive: 8.91 µM [inhibitor, partial curve, poor fit]. With Cc1cccc(C2c3c(n(C)c(=O)n(C)c3=O)N=C3c4ccccc4C(=O)C32)c1 (stereo not drawn) the Potency was inconclusive: 7.94 µM [inhibitor, full curve, poor fit]. For C/C=C/c1cccc(-c2nc(C(=O)NC3Cc4ccccc4C3)cc3c2[C@@H](CCO)N(C(C)=O)C3)c1, the Potency was inconclusive: 39.8 µM [inhibitor, single point]. For Cc1ccc(NC(=O)c2ccc(Nc3c([N+](=O)[O-])cc([N+](=O)[O-])cc3[N+](=O)[O-])cc2)cc1, the Potency was active: 20 µM. For COc1ccc(CN2C(=O)C(CC(=O)NCc3cccc4ccccc34)CC(C(=O)N(C(C)C)C(C)C)=C2C)cc1 (stereo not drawn), the Potency was inconclusive: 39.8 µM [inhibitor, single point]. In the case of CC(=O)NC(c1ccccc1)c1nc(-c2ccc(C)c(C)c2)cs1 (stereo not drawn), the Potency is reported as inconclusive: 39.8 µM [inhibitor, single point]. With CCOC(=O)[C@H]1[C@H]2COc3ccc(Cl)cc3[C@@H]2N2C(=O)CN(Cc3ccc(C)cc3)C(=O)[C@@]12C the Potency was inconclusive: 39.8 µM [inhibitor, partial curve, poor fit]. In the case of CCOc1cc(C2C(C#N)=C(N)Oc3n[nH]c(-c4ccccc4)c32)ccc1O (stereo not drawn), the Potency is reported as inconclusive: 39.8 µM [inhibitor, partial curve, poor fit]. In the case of COc1ccc(NC(=O)CN(C)S(=O)(=O)c2ccc3c(c2)c(=O)n(C)c(=O)n3C)cc1, the Potency is reported as “inactive”. With Cc1c(C(=O)Nc2ccc(S(=O)(=O)N(C)C3CCN(C)CC3)cc2)oc2ccccc12 the Potency was inconclusive: 39.8 µM [inhibitor, single point]. For O=C(Nc1cc(Cl)cc(Cl)c1)c1cc(S(=O)(=O)N2CCC3(CC2)OCCO3)ccc1F, the Potency was inconclusive: 39.8 µM [inhibitor, single point]. In the case of CC(C)c1ccc(Cn2ccc3c4c(N)nc(NC5CC5)nc4ccc32)cc1, the Potency is reported as active: 24.3 µM. In the case of COc1cc(NC(C)CCCN)c2ncccc2c1 (stereo not drawn), the Potency is reported as inconclusive: 3.16 µM [inhibitor, full curve, poor fit]. For Cc1nc(SCC(=O)Nc2nc3ccccc3s2)c(C#N)c(C)c1C, the Potency was “inactive”. With C=CCN1C(=O)/C(=C/C(=O)OC)S/C1=N\NC(=O)c1ccccc1 the Potency was “inactive”. In the case of COc1cc2[nH]c(=O)n3nc(-c4ccccc4)nc3c2cc1OC, the Potency is reported as inconclusive: 3.98 µM [inhibitor, partial curve, poor fit]. For Cc1ccc(C)c(NC(=O)Cn2nnc(C(=O)NCc3cccs3)c2N)c1, the Potency was inconclusive: 28.2 µM [inhibitor, single point]. For CC[C@H](C)Cc1cn([C@@H](CCCN=C(NC(=O)OC(C)(C)C)NC(=O)OC(C)(C)C)C(=O)NCCCCCCCCCCC(=O)N2CCN(C(=O)OC(C)(C)C)CC2)nn1, the Potency was inconclusive: 28.2 µM [inhibitor, single point]. For O=C(Nc1cccnc1)c1ccc([N+](=O)[O-])s1, the Potency was inconclusive: 2.24 µM [inhibitor, partial curve, poor fit]. With Cc1ccc(NS(=O)(=O)c2ccc(C(=O)NCc3ccncc3)cc2)cc1 the Potency was “inactive”. In the case of C=C1C(=O)[C@]23C[C@H]1CC[C@H]2[C@]1(C)[C@@H](OC(C)=O)CC[C@@](C)(C(=O)O)[C@H]1C[C@@H]3O, the Potency is reported as active: 3.16 µM. With O=C(NC(=S)Nn1cnnc1)c1ccc(F)cc1Cl the Potency was “inactive”. With CCCc1ccc(Oc2cn[nH]c2-c2ccc(O)c(C)c2O)cc1 the Potency was inconclusive: 39.8 µM [inhibitor, single point]. With CSCC(C)N1CCC(CO)(CCCc2ccccc2)CC1 (stereo not drawn) the Potency was inconclusive: 5.32 µM [inhibitor, full curve, poor fit]. With CN(C)CC(O)c1ccc(C=Cc2ccc(Cl)cc2)cc1 (stereo not drawn) the Potency was inconclusive: 31.6 µM [inhibitor, single point]. For CC1(Cc2cccc(F)c2)C(=O)Nc2ccc(S(=O)(=O)NC3CCCCC3)cc21 (stereo not drawn), the Potency was inconclusive: 39.8 µM [inhibitor, partial curve, poor fit]. In the case of Cc1ccnc(NC(=O)CCCOc2cc(=O)n(C)c3ccccc23)c1, the Potency is reported as inconclusive: 3.98 µM [inhibitor, partial curve, poor fit].
Potency is read from the fitted curve at half-maximal effect; tags tell the direction and shape of the fitted curve.
